From PubChem BioAssay AID488969 (Vanderbilt High Throughput Screening Facility, 2010)
The full ranking holds about 110,000 compounds; the median of “z-score” is about -0.1, and the highest 2% start at about 2. The list shows a part of the results. Activity calls are given as the source filed them.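 The calls were made as follows: active = z-score in the third read window above 3 or below -3; inactive = the rest.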

molecular target: Metabotropic glutamate receptor 8 (Rattus norvegicus) (UniProt P70579); test: rat mGluR8 modulators via GIRK flux, primary screen, cell-based, thallium flux, HTS (AID 488969); settings: HEK293 rat mGluR8, GIRK (G protein-gated inwardly rectifying potassium channel) thallium flux, FluoZin2; at 10 µM; stronger effect = higher value; submaximal glutamate (EC20) added with thallium
UniProt P70579, sequence (P70579 whole entry, looked up): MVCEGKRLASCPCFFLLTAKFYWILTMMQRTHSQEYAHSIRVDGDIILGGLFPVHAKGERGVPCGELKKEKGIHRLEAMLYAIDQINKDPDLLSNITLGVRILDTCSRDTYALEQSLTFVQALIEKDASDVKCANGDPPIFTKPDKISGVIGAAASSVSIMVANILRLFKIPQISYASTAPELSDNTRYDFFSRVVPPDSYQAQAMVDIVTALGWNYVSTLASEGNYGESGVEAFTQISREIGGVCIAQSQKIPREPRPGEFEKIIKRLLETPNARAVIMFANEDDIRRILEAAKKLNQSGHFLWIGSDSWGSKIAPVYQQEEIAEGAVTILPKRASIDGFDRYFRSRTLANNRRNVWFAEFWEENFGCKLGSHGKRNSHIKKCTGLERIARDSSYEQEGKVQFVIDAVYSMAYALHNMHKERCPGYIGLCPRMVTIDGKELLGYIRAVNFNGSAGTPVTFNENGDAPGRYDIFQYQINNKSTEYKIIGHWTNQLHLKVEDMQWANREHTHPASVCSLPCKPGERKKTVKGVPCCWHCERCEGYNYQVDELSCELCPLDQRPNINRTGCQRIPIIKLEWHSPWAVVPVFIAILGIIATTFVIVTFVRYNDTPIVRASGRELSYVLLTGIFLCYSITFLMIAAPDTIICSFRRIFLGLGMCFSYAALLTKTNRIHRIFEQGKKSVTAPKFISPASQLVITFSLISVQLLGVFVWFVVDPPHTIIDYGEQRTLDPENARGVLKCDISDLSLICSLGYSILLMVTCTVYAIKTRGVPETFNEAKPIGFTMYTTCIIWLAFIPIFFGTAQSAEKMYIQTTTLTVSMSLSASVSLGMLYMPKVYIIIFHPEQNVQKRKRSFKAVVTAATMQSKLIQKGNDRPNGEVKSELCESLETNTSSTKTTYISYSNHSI

In order of falling z-score:
1. Cc1cccc(OCCCN2CCCCCC2)c1  1.74
2. CCOc1cc(CNC2CCCC2)cc(Cl)c1OCc1ccc(F)cc1  1.69
3. O=C(Nc1ccc2c(c1)OCCO2)C1CCN(S(=O)(=O)c2ccc(Br)s2)CC1  1.13
4. CC(C)(C)C1CCc2onc(C(=O)Nc3cnn(Cc4ccc(F)cc4)c3)c2C1 (stereo not drawn)  0.916
5. CC(=O)C1=C(NC(=O)c2ccc(F)cc2)CC2C1C2(C)C (stereo not drawn)  0.743
6. Cc1cc2nc(N)sc2cc1[N+](=O)[O-]  0.711
7. CCCCNC(=S)NCCN1CCCCC1  0.407
8. O=C(COC(=O)Cc1cccs1)Nc1ccccc1F  0.319
9. Cc1occc1-c1n[nH]c(=S)n1CC(C)C  0.307
10. C=CCN1C(=O)C(Cc2ccc(OCC)cc2)SC1=Nc1ccc(C(=O)O)cc1 (stereo not drawn)  0.222
11. NC(=O)C1CCN(C(=O)CSc2nc3c(c(-c4ccccc4)n2)CCCC3)CC1  0.11
12. Cc1cc(N2CCOCC2)ncc1[N+](=O)[O-]  0.108
13. O=C(CSc1nnc(NC2CCCCC2)s1)Nc1ccc(N2CCOCC2)cc1  0.103
14. CC(C(=O)N1CC2(C)CC1CC(C)(C)C2)N1C(=O)c2ccccc2C1=O (stereo not drawn)  0.1
15. COC(=O)Cn1ncn2cccc2c1=O  0.0705
16. CC1CCN(C(=O)CN(c2ccc(Cl)c(C(F)(F)F)c2)S(C)(=O)=O)CC1  0.0312
17. CC(=O)Nc1ccc(C(=O)NNC(=O)c2cccs2)cc1  0.0116
18. NC(=O)c1csc(-c2ccncc2)n1  0.00251
19. Cc1ccc(S(=O)(=O)NNC(=O)c2ccc(O)cc2)cc1  -0.0144
20. Cc1cccc(Oc2coc3cc(OC(=O)c4cccs4)ccc3c2=O)c1  -0.0252
21. C/C(=N\NC(=O)c1csc2ccccc12)c1ccc(O)cc1  -0.0787
22. COc1ccc(C2=NOC(COC(=O)c3ccc4ccccc4n3)C2)cc1 (stereo not drawn)  -0.0811
23. CCC(C)(C)NC(=O)CN(C(=O)c1snc(C(N)=O)c1N)c1ccc(OC)c(OC)c1  -0.0928
24. O=C(Nc1ccc(S(=O)(=O)NCc2ccccc2)cc1)c1ccccc1[N+](=O)[O-]  -0.102
25. O=C(COc1ccc(Br)cc1)Nc1cc(S(=O)(=O)N2CCCCC2)ccc1N1CCCCC1  -0.105
26. COc1ccc(Cn2c(CCC(=O)Nc3ccc(C)cc3)nc3cccnc32)cc1  -0.111
27. COc1ccc(/C=N/NC(=O)Nc2cccc3nsnc23)c(OC)c1  -0.131
28. CCOc1ccc(C(=O)NC(=S)Nc2cccc(NC(=O)c3ccco3)c2)cc1[N+](=O)[O-]  -0.139
29. O=C(NC(=S)Nc1cc(C(F)(F)F)ccc1N1CCOCC1)c1ccc(-c2cccc(Cl)c2)o1  -0.143
30. CN(CC(CC(=O)Nc1nncs1)c1ccccc1)S(=O)(=O)c1ccc(Br)cc1 (stereo not drawn)  -0.149
31. O=C(CN(Cc1ccc2c(c1)OCO2)C(=O)c1cnsn1)NC1CCCC1  -0.186
32. CC(=O)NC1C(Oc2cccc(C)c2)OC2COC(c3ccco3)OC2C1O (stereo not drawn)  -0.195
33. O=C(COc1ccc(Cl)cc1)NCc1nnc(SCC(=O)c2ccccc2)o1  -0.197
34. C=CCn1c(O)c(N=NC(=O)CNC(=O)c2ccco2)c2ccccc21  -0.207
35. Cc1cc(OCCNCCO)cc(C)c1Cl  -0.221
36. CCCn1c2ccc(/C(C)=N\O)cc2c2cc(/C(C)=N/O)ccc21  -0.225
37. CCOC(=O)CN1CC23C=CC(O2)C(C(=O)Nc2ccc(F)c(C)c2)C3C1=O (stereo not drawn)  -0.226
38. Cc1cc(C)c2c(N)c(C(=O)c3cccc(Cl)c3)sc2n1  -0.231
39. C=CCn1c(=N)c(C(=O)NCCCOC)cc2c(=O)n3cc(C)ccc3nc21  -0.239
40. Cc1ccc(C)c(NC(CC(=O)c2ccccc2)C(=O)OCC(=O)c2cccs2)c1 (stereo not drawn)  -0.244
41. Clc1ccc(Nc2ccc(-n3ccnc3)nn2)cc1Cl  -0.25
42. C/C=C/c1ccc(Oc2nnnn2-c2ccc(C(=O)O)cc2)c(OC)c1  -0.254
43. CCC1(C)Cc2c(sc3nnn(CC(=O)Nc4ccc(Cl)cc4)c(=O)c23)CO1 (stereo not drawn)  -0.349
44. O=C(Oc1ccc(Br)cc1C(=O)/C=C/c1ccccc1F)c1ccco1  -0.35
45. CCn1c(CNC(C)=O)nnc1SCC(=O)c1ccc(Br)cc1  -0.393
46. CCn1cc(C(=O)O)c(=O)c2cc(F)c(N3CCN(S(=O)(=O)c4ccc(Br)cc4)CC3)cc21  -0.406
47. Cc1cc(C(=O)Cn2nnc3ccccc3c2=O)c(C)n1-c1ccccc1F  -0.445
48. O=C(C1CCN(C2CC(=O)N(Cc3ccccc3)C2=O)CC1)N1CCCCCC1 (stereo not drawn)  -0.456
49. O=C(CCCNS(=O)(=O)c1cccc2nsnc12)NCCc1ccccc1  -0.465
50. COc1ccccc1/C=C/C=N/N1CCN(Cc2ccc(Cl)cc2)CC1  -0.494
51. CCOCC(=O)Nc1cc([N+](=O)[O-])ccc1C  -0.688

In the case of `CC1(C)CC(=S)Nc2ccccc2S1`, the z-score is reported as active: 7.97.
In the case of `Cc1ccc(NC(=S)N=Nc2c(O)n(C)c3ccc(S(=O)(=O)N4CCOCC4)cc23)cc1`, the z-score is reported as active: 3.93.
